The text below walks through data of PMC4336329 (PLoS ONE, 2015).

SMILES strings stand for the structures. In all, about 310,000 compounds went through this assay and about 14,000 (4.5%) showed an effect of 50% or more. Effects have a minus sign here. Some of the results follow.
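Note: peak tail current of the secondary pulse compared with the same well before compound.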

Sequence of human ether-à-go-go-related gene (hERG) potassium channel (Q12809 whole entry, looked up): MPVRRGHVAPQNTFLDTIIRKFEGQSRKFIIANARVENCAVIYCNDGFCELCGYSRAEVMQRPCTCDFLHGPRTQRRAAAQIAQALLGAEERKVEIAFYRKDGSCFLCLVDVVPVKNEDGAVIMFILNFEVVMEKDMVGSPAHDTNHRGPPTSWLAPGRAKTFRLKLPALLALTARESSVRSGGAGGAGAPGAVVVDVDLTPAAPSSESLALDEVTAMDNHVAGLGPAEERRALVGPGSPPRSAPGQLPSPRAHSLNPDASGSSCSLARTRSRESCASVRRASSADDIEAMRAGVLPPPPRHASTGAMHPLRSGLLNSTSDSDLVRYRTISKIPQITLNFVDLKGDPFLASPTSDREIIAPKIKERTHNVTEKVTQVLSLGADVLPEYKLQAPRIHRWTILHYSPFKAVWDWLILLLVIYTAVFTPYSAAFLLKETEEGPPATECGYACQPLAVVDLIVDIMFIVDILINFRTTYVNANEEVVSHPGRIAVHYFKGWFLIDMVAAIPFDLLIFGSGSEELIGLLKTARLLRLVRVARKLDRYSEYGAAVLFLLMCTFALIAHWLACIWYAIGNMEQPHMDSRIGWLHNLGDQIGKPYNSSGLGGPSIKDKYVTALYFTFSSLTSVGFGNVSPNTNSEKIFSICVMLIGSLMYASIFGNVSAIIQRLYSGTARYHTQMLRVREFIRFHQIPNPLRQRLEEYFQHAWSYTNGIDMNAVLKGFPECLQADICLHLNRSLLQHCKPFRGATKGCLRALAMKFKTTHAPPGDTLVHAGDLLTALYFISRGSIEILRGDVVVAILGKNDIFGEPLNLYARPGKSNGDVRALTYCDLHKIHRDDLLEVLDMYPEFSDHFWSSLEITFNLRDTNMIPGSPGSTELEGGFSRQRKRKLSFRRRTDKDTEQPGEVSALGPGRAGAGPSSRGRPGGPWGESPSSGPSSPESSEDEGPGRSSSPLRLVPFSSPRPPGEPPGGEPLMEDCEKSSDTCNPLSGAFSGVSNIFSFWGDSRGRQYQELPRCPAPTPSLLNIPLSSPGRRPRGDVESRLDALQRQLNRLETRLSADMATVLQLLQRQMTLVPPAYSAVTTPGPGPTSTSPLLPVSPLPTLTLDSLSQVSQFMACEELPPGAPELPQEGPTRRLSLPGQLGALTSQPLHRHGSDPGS

This assay concerns the target human ether-à-go-go-related gene (hERG) potassium channel (human, UniProt Q12809). Kind of assay: primary screen, population patch clamp on CHO cells stably expressing hERG.
As to `Cc1cc(C)nc(SCc2ccc(C(=O)O)o2)n1`, the “hERG current change (%, negative = inhibition) at 10uM” value is 4.23%.

Regarding `O=C1CC2(CCN(C(=O)COc3ccc(Cl)cc3)CC2)Oc2ccccc21`, the “hERG current change (%, negative = inhibition) at 10uM” value is given as -85.8%.

With `O=[N+]([O-])c1ccc(-c2csc(N3CCCCCC3)n2)cc1`, the “hERG current change (%, negative = inhibition) at 10uM” value is recorded as 16.8%.

Regarding `COc1ccc(C(C(N)=O)c2ncc(C(F)(F)F)cc2Cl)cc1OC` (stereo not drawn), the “hERG current change (%, negative = inhibition) at 10uM” value is recorded as 11%.

Take `O=C(NC(=S)NNS(=O)(=O)c1ccc(Cl)cc1)c1cccnc1`: the “hERG current change (%, negative = inhibition) at 10uM” value amounted to 18.6%.

Consider `COc1nc(OC)nc(N2CCC(C(=O)NC3CCCCCC3)CC2)n1`, for which the “hERG current change (%, negative = inhibition) at 10uM” value came out at 1.3%.

As to `Nc1ccc(S(=O)(=O)Nc2nc(-c3ccccc3)cc(-c3ccccc3)n2)cc1`, the “hERG current change (%, negative = inhibition) at 10uM” value is 21.6%.

In the case of `Cc1ccc(S(=O)(=O)c2cc(C#N)c(=O)[nH]c2N)cc1`, the “hERG current change (%, negative = inhibition) at 10uM” value amounted to 16.8%.

On to `CCc1ccc(C(=O)CN2C(=O)NC3(CCOc4ccccc43)C2=O)s1` (stereo not drawn), for which the “hERG current change (%, negative = inhibition) at 10uM” value was -42.2%.

On to `CCCCCCc1cc2cc(C(=O)OCC)c(=O)oc2cc1O`, for which the “hERG current change (%, negative = inhibition) at 10uM” value turned out to be 23.3%.

Regarding `CC(C)(C)NC(=O)C1c2ccccc2Oc2ccccc21`, the “hERG current change (%, negative = inhibition) at 10uM” value is 10.1%.

With `CCCCCCN1N=C(C)C(C(=O)c2ccc(Cl)cc2)C1=O` (stereo not drawn), the “hERG current change (%, negative = inhibition) at 10uM” value is given as 11.4%.

On to `O=C(Nc1ccc(S(=O)(=O)Nc2ncccn2)cc1)c1cccnc1`, for which the “hERG current change (%, negative = inhibition) at 10uM” value is 22%.

`C=CCSc1nnc(-c2ccncc2)n1-c1ccc(OCC)cc1`: the “hERG current change (%, negative = inhibition) at 10uM” value is -41.5%.

`C[C@@H](C(=O)Nc1ccc2c(c1)OCCO2)n1c(=O)[nH]c2ccccc2c1=O`: the “hERG current change (%, negative = inhibition) at 10uM” value came out at 11.7%.

On to `COc1ccc(N2CCN(C(=O)c3ccc(C(C)(C)C)cc3)CC2)cc1`, for which the “hERG current change (%, negative = inhibition) at 10uM” value was -15%.

Turning to `O=C(NCCN1CCOCC1)C1CCC(CNS(=O)(=O)c2ccccc2)CC1` (stereo not drawn), the “hERG current change (%, negative = inhibition) at 10uM” value was found to be 7.48%.

Turning to `COC(=O)N1C/C=C\C(c2ccc(OC)cc2)N(Cc2ccc(F)cc2)C(=O)C1` (stereo not drawn), the “hERG current change (%, negative = inhibition) at 10uM” value is -2.29%.

On to `N#Cc1ccccc1S(=O)(=O)N1CCN(c2cnccn2)CC1`, for which the “hERG current change (%, negative = inhibition) at 10uM” value is recorded as -4.79%.

With `COc1cccc(CN2C(=O)C(C)N(C(=O)c3c(F)cccc3F)c3ccccc32)c1` (stereo not drawn), the “hERG current change (%, negative = inhibition) at 10uM” value is reported as 15.8%.

As to `Cc1cccc(NC(=S)NCC2CCCO2)c1` (stereo not drawn), the “hERG current change (%, negative = inhibition) at 10uM” value was -1.07%.

For `COc1ccc(C2CC(c3ccccc3)Nc3ncnn32)cc1` (stereo not drawn), the “hERG current change (%, negative = inhibition) at 10uM” value is given as -24.7%.

On to `Nc1nnc(SCC(=O)Nc2ccc3c(c2)OCCO3)s1`, for which the “hERG current change (%, negative = inhibition) at 10uM” value is -1.45%.

As to `C=CCNc1nc(C(=O)OCC(=O)Nc2cc(S(C)(=O)=O)ccc2Cl)cs1`, the “hERG current change (%, negative = inhibition) at 10uM” value is recorded as -5.31%.

Take `CCOc1ccccc1-n1c(=S)sc2c(=O)n(-c3ccc(F)cc3)c(SCC(=O)O)nc21`: the “hERG current change (%, negative = inhibition) at 10uM” value was determined as 21.4%.

In the case of `CC(C)(C)Nc1nc(Nc2ccc([N+](=O)[O-])cc2)nc(NC(C)(C)C)n1`, the “hERG current change (%, negative = inhibition) at 10uM” value stood at 27.5%.

Turning to `CCOC(=O)Cn1nc(C)c(NC(=O)c2ccc(Cl)c([N+](=O)[O-])c2)c1C`, the “hERG current change (%, negative = inhibition) at 10uM” value is reported as 14.2%.

`C=CCc1ccc(OCCOc2cccc3cccnc23)c(OC)c1`: the “hERG current change (%, negative = inhibition) at 10uM” value is listed as 9.23%.

As to `CC(C(=O)NCC1CCCO1)N(C(=O)c1snc(C(N)=O)c1N)c1ccccc1` (stereo not drawn), the “hERG current change (%, negative = inhibition) at 10uM” value is listed as -4.06%.

Regarding `Cc1ccc(NC(=O)CN2CCN(C)CC2)cc1S(=O)(=O)N1CCOCC1`, the “hERG current change (%, negative = inhibition) at 10uM” value is given as -41.8%.

`Cc1c(C(=O)N(C)CC(=O)Nc2cccc(F)c2)oc2c(Cl)cccc12`: the “hERG current change (%, negative = inhibition) at 10uM” value was -11.9%.

`Cc1cccn2c(=O)c(C=O)c(N3CCN(C)CC3)nc12`: the “hERG current change (%, negative = inhibition) at 10uM” value is listed as -0.442%.

Turning to `CCn1c2ccccc2c2nnc(SCc3ccc(C(=O)OC)o3)nc21`, the “hERG current change (%, negative = inhibition) at 10uM” value is -4.44%.

With `CCC(C)NC(=O)Cc1c(OC)ccc2cc(Br)ccc12` (stereo not drawn), the “hERG current change (%, negative = inhibition) at 10uM” value is listed as -8.26%.

Turning to `O=C(NCc1cccnc1)c1ccccc1-c1nc(-c2ccccc2)no1`, the “hERG current change (%, negative = inhibition) at 10uM” value was -37.2%.

As to `CC1CC(C)CN(CCCNC(=O)c2csc3c2CCCC3)C1` (stereo not drawn), the “hERG current change (%, negative = inhibition) at 10uM” value is recorded as -65%.

For `C=CCN1CCCC1CNC(=O)c1cc2[nH]nnc2cc1OC.Cl` (stereo not drawn), the “hERG current change (%, negative = inhibition) at 10uM” value was 12.7%.

As for `CC(C)(C)c1ccc(C(=O)NCc2ccc(Cl)cc2)cc1`, the “hERG current change (%, negative = inhibition) at 10uM” value is 12.6%.

With `O=c1c2c3c(sc2ncn1-n1cccc1)CCCCC3`, the “hERG current change (%, negative = inhibition) at 10uM” value is -11.6%.

In the case of `Cc1ncc([N+](=O)[O-])n1CC(=O)N/N=C/c1ccccc1F`, the “hERG current change (%, negative = inhibition) at 10uM” value is listed as 11.8%.

Turning to `C/C(=N\NC1=NCCN1)c1ccc(Cl)cc1`, the “hERG current change (%, negative = inhibition) at 10uM” value is recorded as -41.7%.

For the molecule `COc1ccc(N(CC(=O)NCCc2ccc(Cl)cc2)S(=O)(=O)c2c(C)[nH]c(=O)[nH]c2=O)cc1`, the “hERG current change (%, negative = inhibition) at 10uM” value is -1.43%.

`CNC(=O)c1ccc(-c2nc(-c3ccccc3)cs2)cc1`: the “hERG current change (%, negative = inhibition) at 10uM” value is 16.9%.

Consider `O=C(c1cc2c(ccc3ccccc32)oc1=O)N1CCCC1`, for which the “hERG current change (%, negative = inhibition) at 10uM” value was found to be 9.48%.

In the case of `CCn1ccc(C(=O)Nc2ccc(S(=O)(=O)Nc3ccccc3OC)cc2)n1`, the “hERG current change (%, negative = inhibition) at 10uM” value is on record as -32.5%.
